Data taken from PubChem BioAssay AID1030 (National Center for Advancing Translational Sciences (NCATS), 2008).
Screen size: about 220,000 compounds; about 16,000 (7.3%) were called active. Inconclusive means that the source gave no clear call. Such entries were picked first, then a sample of the others. Calls follow the shape of the dose curve; as a rule, active = well fitted inhibition curve with a large enough effect (not every such curve was filed as active); inconclusive = small, poorly fitted or top-dose-only effect, or another doubt; inactive = no such curve, though single readings can be large or run the other way. Where the call is inconclusive, the potency comes from a doubtful curve fit.

molecular target: Aldehyde dehydrogenase 1A1 (Homo sapiens) (UniProt P00352); test: qHTS Assay for Inhibitors of Aldehyde Dehydrogenase 1 (ALDH1A1); settings: Purified ALDH1A1, NADH fluorescence, propionaldehyde substrate; series mostly up to 75.3 µM
Chain of UniProt P00352 (P00352 whole entry, looked up): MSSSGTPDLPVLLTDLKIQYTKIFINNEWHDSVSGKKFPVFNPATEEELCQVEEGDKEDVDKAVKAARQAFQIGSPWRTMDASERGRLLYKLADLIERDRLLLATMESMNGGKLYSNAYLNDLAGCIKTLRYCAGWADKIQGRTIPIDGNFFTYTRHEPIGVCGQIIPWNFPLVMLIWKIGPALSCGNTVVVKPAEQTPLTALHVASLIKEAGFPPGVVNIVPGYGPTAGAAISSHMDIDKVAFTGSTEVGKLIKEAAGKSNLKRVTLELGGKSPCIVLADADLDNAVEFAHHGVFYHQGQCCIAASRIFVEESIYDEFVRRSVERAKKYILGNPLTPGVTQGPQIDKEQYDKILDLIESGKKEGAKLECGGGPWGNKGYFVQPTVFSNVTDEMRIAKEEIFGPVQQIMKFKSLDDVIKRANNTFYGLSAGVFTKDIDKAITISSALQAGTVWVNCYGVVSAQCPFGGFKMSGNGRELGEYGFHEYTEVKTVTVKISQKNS
Potency is read from the fitted curve at half-maximal effect; tags tell the direction and shape of the fitted curve.

Potency, inconclusive:
O=C(c1ccc(-c2ccccc2)c(F)c1)C1CCCN(C(=O)c2cncs2)C1 (centres undefined) 35.5 µM [inhibitor, single point]
CN(C)c1nc(-c2cccnc2)nc(-c2ccc(Cl)cc2)c1C#N 29.9 µM [inhibitor, partial curve]
CCN(CC)C(=O)c1sc(N)c(C(=O)OC(C)C)c1C 39.8 µM [inhibitor, single point]
COc1ccc(CCNC(=O)COC(=O)/C=C/c2ccc(OCC#N)c(OC)c2)cc1 25.1 µM [inhibitor, partial curve]
Cc1ccc(S(=O)(=O)N2CCCOC2CNC(=O)C(=O)NCCc2c[nH]c3ccccc23)cc1 (centres undefined) 39.8 µM [inhibitor, single point]
CN(C)CCNC(=O)c1cc2cc(Br)ccc2oc1=O 28.2 µM [inhibitor, partial curve]
CSc1ccccc1NC(=O)c1cc(-c2cccs2)on1 25.1 µM [inhibitor, partial curve]
N#Cc1nc(-c2ccc(OCc3ccccc3)cc2)oc1N1CCOCC1 14.1 µM [inhibitor, partial curve]
COC(=O)c1c(C)oc(C)c(C(=O)OC)c1=O 39.8 µM [inhibitor, single point]
Cc1cc(N2CCCCCC2)nc2ccccc12 22.4 µM [inhibitor, partial curve]
O=C1ON=C(c2ccccc2)/C1=C\c1ccco1 31.6 µM [inhibitor, single point]
COC(=O)c1ccc(-c2sc3nc(N4CCOCC4)c4c(c3c2N)CCCC4)o1 25.1 µM [inhibitor, partial curve]
O=C(Nc1cccc2nsnc12)c1cccnc1 39.8 µM [inhibitor, single point]
O=C(COc1ccc2oc(-c3ccccc3)cc(=O)c2c1)NCc1ccco1 39.8 µM [inhibitor, single point]
c1ccc(Cn2nnnc2-c2ccco2)cc1 39.8 µM [inhibitor, single point]
CCc1ccc(C2CC(c3ccccc3)Nc3nc(N)nn32)cc1 (centres undefined) 39.8 µM [inhibitor, single point]
O=C(Cc1ccccc1)Nc1nnc(-c2ccco2)s1 14.1 µM [inhibitor, partial curve]
CC(C)c1ccc(S(=O)(=O)c2n[nH]n3c2nc(=O)c2ccccc23)cc1 31.6 µM [inhibitor, single point]
CCN(CC(=O)NCc1ccc(Cl)cc1)CC(=O)Nc1ccc(C(N)=O)cc1 28.2 µM [inhibitor, single point]
CCOC(=O)C1CCCN(C(=O)c2cc3nc(-c4cccc(OC)c4)cc(C(F)(F)F)n3n2)C1 (centres undefined) 39.8 µM [inhibitor, single point]
Cc1cc(NC(=O)CSc2nnc(C(C)N(C)C)n2-c2ccc(F)cc2)no1 (centres undefined) 39.8 µM [inhibitor, single point]
CCN(CC)CCCNCC(=O)Nc1cc(C)on1 39.8 µM [inhibitor, single point]
C[C@H]1C=C2C=C[C@H](C)[C@H](CC[C@@H]3C[C@@H](O)CC(=O)O3)[C@H]2[C@@H](OC(=O)[C@@H](C)CCO)C1 35.5 µM [inhibitor, single point]
COc1ccccc1-c1ccc(=O)n(CC(=O)Nc2ccc(C(=O)N3CCCC3)cc2)n1 39.8 µM [inhibitor, single point]
O=C(NC1CCCCC1)c1cc2nc(-c3ccco3)cc(C(F)(F)F)n2n1 28.2 µM [inhibitor, partial curve]
Cc1csc(NC(=O)CCNC(=O)c2ccc([N+](=O)[O-])cc2)n1 44.7 µM [inhibitor, single point]
O=C(c1ccc([N+](=O)[O-])cc1)N1CCN(C(=O)c2cccs2)CC1 44.7 µM [inhibitor, single point]
O=C(CCc1ccccc1)NC(=S)Nc1ccc2c(c1)C(=O)OC2 0.562 µM [inhibitor, full curve]
COc1ccc(-n2c(N)c(C(=O)NCc3ccco3)c3nc4ccccc4nc32)cc1 28.2 µM [inhibitor, partial curve]
Cc1ccc(-n2c(C)cc(/C=N/NC(=O)CN(c3ccc(C)cc3C)S(C)(=O)=O)c2C)cc1 39.8 µM [inhibitor, single point]
Cc1cc(S(=O)(=O)NCC(C)C)ccc1OCC(=O)NCc1ccco1 39.8 µM [inhibitor, single point]
COc1ccc(C2C(C(=O)N3CCOCC3)=C(C)NC3=C2C(=O)CC(C)(C)C3)c(OC)c1 (centres undefined) 31.6 µM [inhibitor, partial curve]
O=C(Cc1ccc(-n2cccc2)cc1)N1CCN(c2ccccc2F)CC1 25.1 µM [inhibitor, single point]
Cc1ccc(NC(=S)N(Cc2ccco2)C2CCN(C(C)C)CC2)cc1 39.8 µM [inhibitor, single point]
COC(=O)c1c(NC(NC(=O)C(C)(C)C)C(Cl)(Cl)Cl)sc2c1CCC2 (centres undefined) 31.6 µM [inhibitor, partial curve]
N#C/C(=C\c1c(Cl)cccc1Cl)c1nc2ccccc2o1 39.8 µM [inhibitor, single point]
Cc1ccc(-n2nnnc2SCC(=O)NNC(=O)c2ccco2)cc1C 25.1 µM [inhibitor, partial curve]
COCCOCC(O)CN1CCN(c2ccccc2)CC1 (centres undefined) 22.4 µM [inhibitor, partial curve]
CC1CCCCN1C(=O)CSc1nnc(-c2ccc(Cl)s2)o1 (centres undefined) 35.5 µM [inhibitor, single point]
COc1ccc(C2CC(c3ccc4ccccc4c3)=NN2C(=O)CSc2ncccn2)cc1 (centres undefined) 35.5 µM [inhibitor, single point]
Cc1ccc(CN(Cc2cc3cc(C)ccc3[nH]c2=O)C(=O)N2CCOCC2)cc1 28.2 µM [inhibitor, single point]

Potency, active:
CCn1c2ccccc2c2cc(NC(=O)CSc3nnc(C4CC4)n3Cc3ccco3)ccc21 17.8 µM
Cn1c(SCC(=O)N2CCN(c3ccccc3)CC2)nnc1-c1ccco1 12.6 µM
Cc1ccc(NC(=O)Cn2c(O)c(N=NS(=O)(=O)c3ccc(C)cc3)c3ccccc32)cc1 0.355 µM
Cc1ccccc1NC(=O)CSC(N)=O 0.794 µM
Cc1ccccc1C1NC(=S)NC2=C1C(=O)CCC2 (centres undefined) 22.4 µM
CCOC(=O)N1CCN(C(=O)c2ccc3c(=O)n(CC4CCCO4)c(=S)[nH]c3c2)CC1 (centres undefined) 14.1 µM
COCCCN=C1NN=C(c2cc(C)n(-c3ccccc3)c2C)CS1 8.91 µM
Cc1c(-c2ncn[nH]2)sc(C#N)c1-c1ccccc1 25.1 µM
CN(C)C(=O)c1cc(C(=O)c2ccccc2Cl)c[nH]1 7.94 µM
COc1ccc(-c2cc(OC)c3c(C)oc(C)c3c(=O)c2)cc1OC 11.2 µM
COc1ccc(N2C(=O)CC(N3CCN(c4ccc(S(C)(=O)=O)cc4)CC3)C2=O)cc1 (centres undefined) 22.4 µM
COc1cc(C(c2sc3nc(C)nn3c2O)N2CCC3(CC2)OCCO3)cc(OC)c1OC (centres undefined) 17.8 µM

Potency, inactive:
CN1CCc2cc3c(cc2C(=O)Cc2ccc4c(c2C1)OCO4)OCO3
COc1ccc2nc(SC)cc(C)c2c1
COc1ccccc1-c1ccc(SCc2ccccc2)nn1
COc1cc(C2C(C#N)=C(N)N(c3sc4c(c3C#N)CCCC4)C3=C2C(=O)CC(C)(C)C3)cc(OC)c1OC (centres undefined)
S=C(Nc1cccc(Br)c1)c1ccccc1
Cc1ccc(C(=O)CSc2nnc(-c3c[nH]c4ccccc34)o2)cc1
COc1ccc2c(c1)O[C@H](c1ccc3c(c1)OCO3)[C@@H](OC(=O)Nc1ccc(OC(F)F)cc1)C2=O
CC1CN(C(=O)COC(=O)c2cccs2)CC(C)O1 (centres undefined)
CC(C)CC(=O)Nc1cccc(C(=O)Nc2ccccc2C(=O)O)c1
Cc1cccc(Sc2ccc([N+](=O)[O-])cc2[N+](=O)[O-])n1
O=C1NC(=O)[C@@]2(CCOc3ccc(F)cc32)N1
Cc1nc(CSc2ccccc2)cc(=O)[nH]1
O=C(OCC(=O)N1CCN(c2ccccc2)CC1)c1ccc[n+]([O-])c1
CCN(CC)S(=O)(=O)c1ccc(NC(=O)C2c3ccccc3Oc3ccccc32)cc1
COC(=O)c1cccc(NC(=O)Nc2ccccc2OC)c1
O=C(COc1ccc(Cl)cc1)NCc1nnc(SCC(=O)NC2CCCC2)o1
CN(C(=O)CSc1nc2c(c(=O)[nH]1)CCC2)c1ccccc1
COCCCNC(=O)C1CC(=O)N(Cc2ccc(OC)cc2)C1 (centres undefined)
COC(=O)c1ccccc1NC(=O)COC(=O)c1ccccc1N=Nc1ccc(N(C)C)cc1
COc1cccc2sc(NN)nc12
CCCCCCCCCCCCCCCCn1cc[n+](C)c1
